# Measurements taken from article PMC6919601, “Identification of Plasmodium dipeptidyl aminopeptidase allosteric inhibitors by high throughput screening” (PLoS ONE, 2019).
# Where “and” joins values, the source holds several entries; their conditions need not be identical. Identical values can stand only once. About 230 (0.21%) of roughly 110,000 compounds showed an effect of 50% or more. The list shows a part of the results.
# Target: DPAP1 (Plasmodium falciparum, UniProt Q8IIJ9)
# Test: primary screen, percent inhibition; read by cleavage of a fluorogenic dipeptide substrate; higher = more effect of the substance
# Set-up: species or system P. falciparum D10 trophozoite lysates; single well
# 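Note: 30 min substrate incubation versus DMSO and 10 µM JCP410 controls.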
# Sequence of DPAP1 (Q8IIJ9 whole entry, looked up): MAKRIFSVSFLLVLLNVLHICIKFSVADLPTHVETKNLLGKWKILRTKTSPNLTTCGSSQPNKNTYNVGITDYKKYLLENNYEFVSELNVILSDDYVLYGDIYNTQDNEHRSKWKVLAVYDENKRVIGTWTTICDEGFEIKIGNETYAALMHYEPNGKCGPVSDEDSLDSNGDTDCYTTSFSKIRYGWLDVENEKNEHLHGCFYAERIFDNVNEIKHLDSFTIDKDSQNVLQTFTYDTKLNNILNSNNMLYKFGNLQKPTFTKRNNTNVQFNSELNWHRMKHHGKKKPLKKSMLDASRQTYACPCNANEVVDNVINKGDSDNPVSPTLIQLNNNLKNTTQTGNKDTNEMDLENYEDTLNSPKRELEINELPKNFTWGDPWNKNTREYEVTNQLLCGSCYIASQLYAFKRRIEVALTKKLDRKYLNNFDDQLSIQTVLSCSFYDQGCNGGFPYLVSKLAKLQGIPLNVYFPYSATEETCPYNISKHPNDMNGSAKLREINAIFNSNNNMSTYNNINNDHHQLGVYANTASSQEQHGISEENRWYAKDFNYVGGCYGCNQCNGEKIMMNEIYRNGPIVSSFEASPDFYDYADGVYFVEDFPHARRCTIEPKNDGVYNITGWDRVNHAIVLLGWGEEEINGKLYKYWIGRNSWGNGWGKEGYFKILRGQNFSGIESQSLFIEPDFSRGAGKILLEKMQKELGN
row,SMILES,% Inhibition @ 10 uM
1,Cc1cc(C)cc(NC(=O)c2ccc(OC(F)F)cc2)c1,0.13%
2,O=C(C[n+]1cc2sccc2c2cscc21)c1ccccc1,-3.45%
3,COc1cccc2[nH]ccc12,-4.02%
4,CC1CCCCN1CCNC(=O)CCCn1c(=O)c2cccn2c2cccnc21 (centres unmarked),7.86%
5,CCOc1ccc(-c2nc3cc(N)ccc3o2)cc1,-2.03%
6,O=C1/C(=C\c2ccc(OCc3ccccc3)cc2)N2CCC1CC2,-6.78%
7,CC1=C(C(=O)Nc2cccnc2)C(c2cccs2)n2nc(-c3cccnc3)nc2N1 (centres unmarked),-2.34%
8,CCSc1nnc(NC(=O)C2CC2c2ccccc2)s1 (centres unmarked),-1.1%
9,Cc1[nH]nc2c1C(c1ccc(OCc3ccc(Cl)cc3Cl)cc1)C(C#N)=C(N)O2 (centres unmarked),1.52%
10,Cc1ccc(CN2COc3ccc4c(oc(=O)c5ccccc54)c3C2)cc1,4.13%
11,Cc1cc(O)n2ncnc2n1,-2.41%
12,O=C(NCc1ccco1)C1CCCN(S(=O)(=O)N2CCOCC2)C1 (centres unmarked),5.94%
13,CNc1nc2c(C)cccn2c(=O)c1/C=N/CCO,1.39%
14,CCN1C(=O)C(CC(=O)NCCc2ccc(OC)cc2)N(CC)C1=O (centres unmarked),0.686%
15,N#CC1=C(N)OC2=C(C(=O)c3ccccc3C2=O)C1c1ccc(C(F)(F)F)cc1 (centres unmarked),5.45%
16,CC(=O)c1[nH]c(C(=O)O)c(C)c1C,1.74%
17,CSc1ccccc1NC(=O)C(C)NS(=O)(=O)c1ccc(Cl)cc1 (centres unmarked),2.01%
18,Cc1cccc(C)c1NC(=O)CSc1ncnc2[nH]cnc12,0.907%
19,CC(C)c1nc(NCCCO)c(C#N)c2c1CCCC2,-4.28%
20,Cc1cc(C)nc(SCC(=O)Nc2ccc(Cl)cc2)n1,0.661%
21,CCOC(C(=O)OCCCN(CC)CC)(c1ccccc1)c1ccccc1,1.27%
22,CCOC(=O)C1=C(CC)OC(N)=C(C#N)C1c1cc(Br)ccc1OC (centres unmarked),4.57%

row,SMILES,% Inhibition @ 10 uM
1,Cc1cc(C)n(C(=O)COc2ccccc2C)n1,-5.28%
2,Cn1c(=O)c2ncn(CC(=O)Nc3ccc(C(=O)NC4CCCCC4)cc3)c2n(C)c1=O,-4.56%
3,O=C(Nc1ccc(Cl)cc1)N1CCCc2ccccc21,-4.86%
4,Cc1ccsc1/C=C1/SC(=O)N(CC(=O)Nc2cccc3ccccc23)C1=O,-14.4%
5,Cc1ccc(-c2[nH]nc3c2C(c2ccsc2)C(C#N)=C(N)O3)cc1 (centres unmarked),2.32%
6,CCCCOC(C(=O)OC(C)CN(C)C)(c1ccccc1)c1ccccc1 (centres unmarked),-11.4%
7,CCCc1nc2ccccc2n1CC(O)COc1ccc(C(C)=O)cc1 (centres unmarked),-8.7%
8,O=C1NC(=O)N(c2cccc3ccccc23)C(=O)/C1=C\c1ccc(O)cc1,-2.42%
9,COc1ccc(C(=N)NOC(=O)N2CCOCC2)cc1OC,1.96%
10,COc1ccc(C(=O)Nc2noc3ccccc23)c(OC)c1,-2.85%
11,CCC(NC(=O)NCc1ccc(Cl)cc1)(C(F)(F)F)C(F)(F)F,0.475%
12,CC(=O)Nc1ccc(S(=O)(=O)NC(C)C)cc1,-4.35%
13,CSC1=C(C#N)C(c2ccc(C)o2)CC(=O)N1 (centres unmarked),1.54%
14,COc1ccc(C2CC(c3ccc(C)cc3)=NN2C(C)=O)cc1OC (centres unmarked),-0.496%
15,O=C(O)CCCC(=O)c1c[nH]c2ccccc12,5.3%
16,O=C(CN1C(=O)c2ccccc2S1(=O)=O)Nc1ccc(Cl)cc1,4.83%
17,CC1CCC(N2CCN(c3ccccc3F)CC2)C1 (centres unmarked),-1.21%
18,O=C(O)c1ccc(Oc2ccc3c(c2)C(=O)N(c2ccc(C(=O)O)cc2)C3=O)cc1,3.53%
19,Cc1cccc(C)c1-n1nnnc1C1(Nc2cccc(O)c2)CCCC1,-0.216%
20,C=CCNC(=O)CN(c1cc(C)ccc1OC)S(=O)(=O)c1ccc(C)cc1,1.89%
21,Cc1nc2ccccc2n1CCCCOc1ccc(Cl)cc1,-0.551%
22,COc1cccc(C2C(C#N)=C(N)OC3=C2C(=O)CC(c2ccco2)C3)c1OCc1ccc(F)cc1 (centres unmarked),-1.06%

row,SMILES,% Inhibition @ 10 uM
1,Cc1ccc(N(CC(=O)N2CCN(c3ccccc3)CC2)S(=O)(=O)c2ccc(C)cc2)cc1,4.49%
2,Cc1ccc(Cn2ccc(NC(=O)c3cc(-c4ccc(F)cc4)on3)n2)cc1,-2.65%
3,CN(C)CC(C)(C)CNC1CCC(C(C)(C)C)CC1 (centres unmarked),4.74%
4,COc1ccc(/C=C2/SC(=O)N(CN(C)C)C2=O)c(OC)c1,17.3%
5,COc1cccc(CN2CCN(Cc3cccc(Br)c3)CC2)c1,-6.41%
6,Cc1ccc2onc(CNC(=O)Nc3cccnc3)c2c1,-4.63%
7,Cc1ccc2ncc(C(=O)O)c(O)c2c1,-2.48% and 3.82%
8,CC(C)OCCCn1c(=O)c2ccccc2n2c(CCC(=O)N3CCC(C(N)=O)CC3)nnc12,1.73%
9,Cc1cc(C)c(/C=C(\C#N)C(N)=S)c(C)c1,-1.59%
10,CC(C)(C)c1ccc(S(=O)(=O)/N=C2\C=C(SCC(=O)O)C(=O)c3ccccc32)cc1,-1.69%
11,Cc1nc2ccc(S(=O)(=O)NCC(=O)N3CCN(c4ccccn4)CC3)cc2s1,0.953%
12,CCCSc1nnc2c(n1)OC1(CCCCC1)Nc1ccccc1-2,1.27%
13,CCOC(=O)C1CCN(C(=O)c2ccc(C#CC(C)(C)O)cc2)CC1,-4.93%
14,COC(=O)CCC(=O)Nc1ccccc1NC(=O)CCC(=O)OC,-2.77%
15,CC1CCC(NC(=O)C2c3ccccc3C(=O)N2CCc2ccc(Cl)cc2)CC1 (centres unmarked),1.76%
16,C=CCSc1nc(=O)c2c(n1C)NC(=O)CC2c1ccc(O)cc1OC (centres unmarked),-2.88%
17,CCOC(=O)c1c(C)[nH]c(C)c1S(=O)(=O)NCCN(C)C1CCCCC1,-0.873%
18,COc1ccc(CCN2C(=O)CC(N3CCN(c4ccc(Cl)cc4)CC3)C2=O)cc1OC (centres unmarked),1.61%
19,C/C=C/Cn1c(SCCc2ccccc2)nc2c1c(=O)[nH]c(=O)n2C,-4.48%
20,CN(Cc1ccccc1)S(=O)(=O)c1ccc(NC(=O)COc2ccccc2)cc1,1.29%
21,Cc1ccc(S(=O)(=O)N(CC(=O)N2CCN(C)CC2)c2ccc(F)cc2)cc1,10.6%
